These results are taken from ChEMBL document CHEMBL1201862, “PubChem BioAssay data set” (2004).

Molecules are shown by their SMILES.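 Method: 48-hour compound exposure of cells in 96-well plates, five concentrations, linear interpolation of endpoints. GI50 is the concentration that inhibits growth by half.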 Calls of active or inactive are those of the source. Rule as the data show it: active = GI50 up to about 1.1 µM and inactive = higher.

This experiment relates to NCI-H322M. Nature of the experiment: NCI-60 cell line screen, 48 h.
With `Cc1cc(S(=O)(=O)Nc2nc3ccccc3nc2-c2cccc([N+](=O)[O-])c2)c(S)cc1Cl`, the GI50 is inactive: 17.5 µM.

As to `NN=C(S)Nc1cccc(Cl)c1`, the GI50 is inactive: > 100 µM. With `O=S(=O)(c1cccc(C(F)(F)F)c1)N1c2ccccc2-n2cccc2C1c1cccnc1` (stereo unspecified), the GI50 was inactive: > 40.3 µM. For `CC(=O)Oc1ccc2cc(Oc3ccccc3)c(=O)oc2c1`, the GI50 was inactive: > 100 µM. Take `CCOC(=O)c1ccc2c(=O)n3c(C(=O)OCC)ccc3c(=O)n12`: the GI50 was inactive: > 100 µM. Regarding `O=C(Nc1ccc(Cl)cc1)c1cc(S(=O)(=O)NC2=Nc3ccc(Cl)cc3C(c3ccccc3)N2)c(SSc2cc(Cl)c(C(=O)Nc3ccc(Cl)cc3)cc2S(=O)(=O)NC2=Nc3ccc(Cl)cc3C(c3ccccc3)N2)cc1Cl` (stereo unspecified), the GI50 was inactive: > 100 µM. As to `C=C(C)C(=O)O[C@@H]1C/C(C)=C\[C@H](OC(C)=O)C[C@](C)(O)/C=C2/OC(=O)C(COC(C)=O)=C21`, the GI50 is inactive: 8.39 µM. The figure for `O=C(/C=C/c1ccco1)c1ccc(NCc2nc3ccccc3[nH]2)cc1` is inactive: 9.59 µM; for `CNC(=O)N(CCC#N)CCN(C(=O)NC)c1ccccc1` it is inactive: > 100 µM. As for `O=[N+]([O-])/C(C(Cl)=C(Cl)Cl)=C(/Nc1ccccc1)Sc1ccccc1`, the GI50 was inactive: 29.4 µM. The figure for `CCOC(=O)COC1=Nc2cc(OC)c(OC)c3nc(Cl)cc(c23)C1=O` is inactive: 10.9 µM; for `CCOC(=O)CNC1C(NC(C)=O)C(OC)OC2COC(c3ccccc3)OC21` (stereo unspecified) it is inactive: > 100 µM.

For the compound `Clc1ccc(CCn2ccc3ccccc32)c(Cl)c1`, the GI50 was inactive: > 100 µM. `N#CC(/C(=N/NC(=O)C(=O)NN)C(=O)NC12CC3CC(CC(C3)C1)C2)c1ccccc1` (stereo unspecified): the GI50 is inactive: > 100 µM. To `Cc1ccc(C)c(NC(=O)C(=O)C2C(=O)N(c3ccccc3)N=C2N)c1` (stereo unspecified) belongs inactive: > 100 µM; to `CCN(CC)CCn1nc2c3c(c(NCCN)ccc31)Sc1cc(O)ccc1-2`, active: 0.638 µM. The figure for `CCCCCCSc1nc(N)nc2nc[nH]c12` is inactive: 39.2 µM; for `COC(=O)C1=CNC(C(=O)OC)=NN1` it is inactive: > 100 µM; for `S=c1sscc1N1CCSc2ssc(=S)c21` it is inactive: > 100 µM. As to `O=C1C2CCCCC2C(=O)N1n1c(-c2ccccc2)n[nH]c1=O` (stereo unspecified), the GI50 was inactive: > 100 µM.

`CCOC(=O)c1cc(Br)c(-c2cc(C)co2)[nH]1`: the GI50 was inactive: > 100 µM. The figure for `COC(=O)c1cc(OCc2cc(OCc3ccc(Br)cc3)cc(OCc3ccc(Br)cc3)c2)cc(OCc2cc(OCc3ccc(Br)cc3)cc(OCc3ccc(Br)cc3)c2)c1` is inactive: > 100 µM. For `CC1C(c2ccccc2)N(C)C(c2ccccc2)C(C)C1(O)c1ccccc1` (stereo unspecified), the GI50 was inactive: > 100 µM.

Consider `C/C(=N/N(C=O)C[n+]1ccccc1)C(CN(CC(C)C)CC(C)C)C(=O)Nc1ccc(C)cc1C` (stereo unspecified), for which the GI50 is inactive: > 100 µM. `CCCCC(C)C1CCC2(C)C=CC(=O)C(C)=C2C1O` (stereo unspecified): the GI50 is inactive: > 100 µM.

Consider `c1ccc2c(c1)[nH]c1c2nc2ccccn21`, for which the GI50 was inactive: > 100 µM. Consider `NS(=O)(=O)c1ccc(NNc2c3ccccc3nc3c(C(=O)Nc4ccc(S(=O)(=O)Nc5ncccn5)cc4)cccc23)cc1`, for which the GI50 was inactive: > 25 µM. On to `CCCC(=O)Nc1cc(/C=C/C(=O)N2CC(CCl)c3ccc([N+](=O)[O-])cc32)n(C)c1` (stereo unspecified), for which the GI50 was inactive: > 100 µM. Regarding `CCOC(=O)c1cc(Sc2ccc(N)c(C(=O)OCC)c2)ccc1N`, the GI50 is inactive: 28.2 µM. As to `CC(C)=C=CP(=O)(O)c1ccccc1`, the GI50 is inactive: > 100 µM. For `Cc1nc(C(N)=S)sc1C(=O)CC(=O)C(=O)Nc1c(C(C)C)cccc1C(C)C`, the GI50 was inactive: 31.3 µM. `N#CC(C#N)=C1NC(=O)C(c2ccccc2)C(=O)N1` (stereo unspecified): the GI50 was inactive: > 100 µM. The figure for `CCOC(=O)/C=C/C1(CCOC(C)=O)CCCCC1` is inactive: > 10 µM; for `COC(=O)[C@@H]1[C@H](O)CC[C@H]2[C@@]1(C)CC[C@@H](C)[C@]2(COC(C)=O)CC(=O)c1ccoc1` it is inactive: > 50 µM. The figure for `O=C1C(=CNc2ccc([N+](=O)[O-])cc2)C(=O)N(c2ccccc2)C(=O)N1c1ccccc1` is inactive: > 100 µM. As for `COc1ccc(C2c3c(-c4ccccc4)nn(-c4ccccc4)c3Oc3ncn(N)c(=N)c32)cc1OC` (stereo unspecified), the GI50 was inactive: 1.95 µM.

On to `O=C(CCc1nnc(S)[nH]1)Nc1ccc(Cl)c(Cl)c1`, for which the GI50 was inactive: > 100 µM. On to `O=C(C/C(=N/O)C(F)(F)F)c1cccs1`, for which the GI50 is inactive: > 100 µM. For `Cc1cccc(NC(=O)/C=C/c2ccc([N+](=O)[O-])cc2)c1`, the GI50 is inactive: > 39.5 µM. With `c1ccc(N/N=C2\NN=C(c3ccccc3)CS2)cc1`, the GI50 is inactive: 24 µM.

Take `O=C(c1cc2ccccc2[nH]1)C(O)(c1cc2ccccc2[nH]1)c1cc2ccccc2[nH]1`: the GI50 is inactive: > 246 µM. As to `CCNCCNc1c2ccccc2nc2ccccc12`, the GI50 was inactive: 1.46 µM. To `Clc1ccc(/N=c2\oc3ccccc3cc2-c2nc3ccccc3[nH]2)c(Cl)c1` belongs active: 0.0662 µM; to `COc1ccc(C(C#N)NCCCCCCNC(C#N)c2ccc(OC)cc2)cc1` (stereo unspecified), inactive: > 100 µM. In the case of `N#CC(C#N)/N=N/c1ccc(-c2nc3ccccc3[nH]2)cc1`, the GI50 was inactive: > 100 µM. For the compound `CCc1nc(N)nc(N)c1-c1ccc([N+](=O)[O-])c(Cl)c1`, the GI50 was inactive: 7.62 µM. To `COC(=O)c1c(OC(C)=O)ccc2c1c1c(OC(C)=O)c3ccccc3c(OC(C)=O)c1n2Cc1cc(OC)cc(OC)c1` belongs inactive: 22 µM. In the case of `C/C(CC(=O)Nc1ccc(C)cc1C)=N/N=C(N)N`, the GI50 was inactive: > 100 µM.

In the case of `O=[N+]([O-])c1ccc(-n2nc3ccc4c(no[n+]4[O-])c3[n+]2[O-])c([N+](=O)[O-])c1`, the GI50 is inactive: 3.05 µM. Regarding `O=P(Oc1ccc(Cl)cc1)(Oc1ccc(Cl)cc1)N1CC1`, the GI50 was inactive: > 10 µM. In the case of `O=C(C[n+]1ccccc1)N/N=C(\C(=O)NC1=C(Cl)C(=O)c2ccccc2C1=O)c1c(O)c2ccc(O)cc2oc1=O`, the GI50 is inactive: 13.9 µM.

`C#C[C@]1(O)CC[C@H]2[C@@H]3CCC4=C/C(=N/NC(=O)c5cccc6c(=O)c7ccccc7[nH]c56)CCC4[C@H]3CC[C@@]21C` (stereo partly specified): the GI50 is inactive: > 100 µM.

On to `CCOC(=O)/C(=C/c1ccccc1)N(CC)CC`, for which the GI50 was inactive: > 100 µM. As for `O=c1cc(O)c2c(O)cc(O)cc2o1`, the GI50 is inactive: > 100 µM. For `CC1(CO)C(O)CCC2(C)C1CCC1CC3CC12CCC3(O)CO` (stereo unspecified), the GI50 was inactive: > 100 µM. As to `COC(=O)C(CCC1(C)OCCO1)C(C)=O` (stereo unspecified), the GI50 was inactive: > 100 µM. With `CC(C)(C)c1c(C(C)(C)C)c(=O)c1=O`, the GI50 is inactive: > 100 µM.

As for `COc1ccc(NN=C2C(=O)CCC2=O)cc1`, the GI50 was inactive: > 100 µM.

For the compound `COC(Cc1ccccc1)NC(C)=O` (stereo unspecified), the GI50 was inactive: > 100 µM. For the compound `SC1=NC2=C(CSC/C2=C\c2ccccc2)C(c2ccccc2)N1` (stereo unspecified), the GI50 was inactive: > 100 µM. Turning to `CC(=O)N[C@@H](Cc1ccc(O)cn1)C(=O)NCc1cccc(Cl)c1`, the GI50 is inactive: > 100 µM. The figure for `O=c1[nH]c(Nc2ccc(Br)c(C(F)(F)F)c2)nc2[nH]cnc12` is inactive: > 100 µM. To `CCN(CC)CCc1c2c(nc3ccccc13)C(=O)c1cccnc1C2=O` belongs inactive: 2.1 µM; to `CC(C)C(=O)/C=C/c1ccc(Br)cc1`, inactive: 20.8 µM; to `COc1ccc(NC(=O)CSc2nnc(Cc3ccccc3)o2)cc1`, inactive: > 100 µM. On to `CCOC(=O)C(NC(=O)NC(C(=O)OCC)C(=O)OCC)C(=O)OCC`, for which the GI50 was inactive: > 100 µM. Turning to `O=C(Nc1nc2ccc([N+](=O)[O-])cc2s1)C(=O)C(C(=O)c1ccccc1F)C1OC(=O)c2ccccc21` (stereo unspecified), the GI50 was inactive: 37.8 µM. To `O=C(N/N=C/c1ccc2c(c1)OCO2)Nc1ccccc1Cl` belongs inactive: 3.54 µM. As for `O=C(O)c1cccc(CC(Br)C(=O)O)c1` (stereo unspecified), the GI50 is inactive: > 100 µM. In the case of `CNc1ccc2ncccc2c1[N+](=O)[O-]`, the GI50 is inactive: > 100 µM.

As for `c1ccc(C2C3=C(c4ccccc4CC3)N3c4cc5c(cc4=NC34CCCCC24)Nc2ccccc2N=5)cc1` (stereo unspecified), the GI50 is inactive: > 10 µM. In the case of `CC1[C@@]2(CCC(C)(C)O2)O[C@@H]2C=C3C4CCC5Cc6nc7c(nc6C[C@@]5(C)C4C[C@H](O)[C@@]3(C)[C@]12O)CC1CCC2C3=C[C@H]4O[C@@]5(O[C@@](C)(CO)C[C@@H]5O)C(C)[C@@]4(O)[C@]3(C)[C@@H](O)CC2[C@]1(C)C7` (stereo partly specified), the GI50 was active: 0.881 µM. `CC(NC1CCCC[C@@H]1O)c1ccccc1` (stereo partly specified): the GI50 is inactive: > 100 µM. For `Cn1cc2ccccc2c1-c1nc(F)nc(Oc2ccc3c(c2)CC[C@@H]2C3CC[C@]3(C)C(O)CCC23)n1` (stereo partly specified), the GI50 is inactive: 28.2 µM. The figure for `O=C1OC(c2ccccc2)C2CC3CC4(CCC3CN12)OCCO4` (stereo unspecified) is inactive: > 100 µM; for `COc1cc(C2(O)c3ccccc3C3=NCCN32)cc(OC)c1OC` (stereo unspecified) it is inactive: > 100 µM; for `COC(=O)CNC(=O)CCC(C)[C@H]1CCC2C3C(C[C@H](OC(C)=O)[C@@]21C)[C@@]1(C)CCC2(C[C@H]1C[C@H]3OC(C)=O)OOC1(CCCCC1)OO2` (stereo partly specified) it is inactive: 23.7 µM. Turning to `O=CN/C=C/c1cccc(O)c1`, the GI50 was inactive: 67.9 µM. Consider `CN(C(=O)c1ccc(OCCCC(=O)O)c(Cl)c1Cl)C1CCCC1`, for which the GI50 was inactive: > 100 µM. Consider `COc1ccc2[nH]c3c(O)c(-c4c(C)cc5c([nH]c6ccc(OC)cc65)c4O)c(C)cc3c2c1`, for which the GI50 was inactive: 4.38 µM. As to `O=C1Cc2c([nH]c3ccc(Cl)cc23)-c2ccccc2N1`, the GI50 was inactive: > 100 µM.
